In all, about 48,000 compounds went through this assay and about 450 (0.94%) were called active. Another 19% or so got no clear call; they are omitted. Calls come from the whole dose curve; as a rule, active = well fitted inhibition curve with a large enough effect; inconclusive = small, poorly fitted or top-dose-only effect; inactive = no such curve, though single readings can be large or run the other way. This is one part of the list.
test: Primary qHTS for Identification of Small Molecule Inhibitors of Huntingtin Promoter Activity; settings: HEK293 HTT promoter firefly luciferase reporter (activity 0% = vehicle and -100% = no light), 24 h; series mostly up to 57.5 µM; activity change, negative = inhibition: at the top concentration; note: nearly all actives have a fitted effect of over 50% in size
Procedure, shortened: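 Luminescence was read after Dual-Glo reagent and a 10 min room-temperature incubation. Values were normalized to vehicle (0% activity) and zero RLU (-100% activity). Reporter HEK293 cells had been exposed to compounds (up to 57.5 uM final) for 24 h.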

Activity change, negative = inhibition, inactive:
CCc1cccc(NC(=O)CSc2ncc3c(n2)-c2ccc(Cl)cc2N(Cc2ccccc2)S3(=O)=O)c1 -9.45%
COc1cccc(C(=O)NC2(C(F)(F)F)C(=O)Nc3c2c(=O)[nH]c(=O)n3-c2ccc(C)cc2)c1 (centres undefined) -1.85%
CCc1ccc(NC(=O)C(NS(=O)(=O)c2cccs2)C(C)C)cc1 (centres undefined) -26.4%
CCCCN(C)CCNC(=O)c1ccc2c(=O)n(CCc3ccccc3)c(=O)[nH]c2c1 3.1%
Cn1c(=O)c2c(c3ccccc31)OC(=O)CC2c1ccc(C(F)(F)F)cc1 (centres undefined) -9.95%
O=C(Nc1ccc2oc(-c3cccc4c(Br)cccc34)nc2c1)c1ccc(F)cc1 -12% [at 11.5 µM]
O=C(COC(=O)c1cc(-c2cccs2)nc2ccccc12)c1ccccc1 28.3%
O=C(c1ccc2c(c1)N(Cc1ccccc1F)C(=O)c1ccccc1S2(=O)=O)N1CCOCC1 -14.1%
CCCN(CCC)CCCNC(=O)Cn1cnc2sc(C)c(S(=O)(=O)N3CCCCC3)c2c1=O -15.9%
CCCN(Cc1cccs1)C(=O)Nc1cc(Cl)c(OC)cc1OC -4.92%
COc1cccc(-n2c(SCC(=O)Nc3cc(C)ccc3C)nc3c(oc4ccccc43)c2=O)c1 -9.72%
COc1ccc(-c2cc(C(=O)Oc3ccccc3)c3cc(C)ccc3n2)cc1 43.3%
CCn1c(=O)n(-c2ccc(C)c(F)c2)c(=O)c2sc3ccccc3c21 -9.9%
CCOCCCNC(=O)c1ccc2nc(CCc3ccccc3)oc2c1 0.788%
COc1cccc(CN2CCc3nc(Nc4ccc5c(c4)OCCO5)ncc3C2)c1 -23.8%
Cc1ccc2nc(N(Cc3cccnc3)C(=O)Cc3ccccc3)sc2c1 -10%
CCOC(=O)c1ccccc1NC(=O)Cn1ncc2c([nH]c3ccccc32)c1=O -13.7%
CCc1ccccc1NC(=O)CCn1nc(C)c2c(C)n(-c3ccccc3)nc2c1=O -15.5%
CC1CCN(c2ncnc3c2cnn3-c2ccc(F)cc2)CC1 25.7%
CCc1ccc(-n2c(=O)c3c4c(sc3n(CC(=O)NCCCOC)c2=O)CCCC4)cc1 -3.15%
O=C(NCCc1cccs1)c1ccc(Cn2c(SCc3ccc(F)cc3)nc3cccnc32)cc1 11.3%
CC[C@H](C=C[C@@H](C)[C@H]1CC[C@H]2[C@@H]3CC=C4C[C@@H](O)CC[C@]4(C)[C@@H]3CC[C@]12C)C(C)C -0.1% [at 25.2 µM]
COc1cccc(NC(=O)c2sc3nc(C)c(C(=O)Nc4ccc(C)cc4C)c(-c4ccccc4Cl)c3c2N)c1 -4.14%
CC1(C)O[C@H]2CC(=O)OC[C@]23[C@H]2CC[C@@]4(C)[C@H](c5ccoc5)OC(=O)[C@H]5O[C@]54[C@]2(C)C(=O)C[C@@H]13
Cc1ccc(CCNC(=O)c2ccc(NC(=O)N3CC(C)Sc4ccccc43)cc2)cc1 (centres undefined) -7.35%
COC(=O)C1=C(c2ccccc2)c2ccccc2S(=O)(=O)N1CC(=O)Nc1cccc(C(C)=O)c1 -36%
NC(N)=NC(=O)Cc1c(Cl)cccc1Cl -11.3%
COc1ccccc1N1CCN(C(=O)c2cn(C)c3ccc(S(=O)(=O)N(C)C4CCCCC4)cc3c2=O)CC1 -2.66% [at 11.5 µM]
CCOc1ccc(NC(=O)c2cnn(-c3ccc(C)c(C)c3)c2C2CCN(C(=O)OC(C)(C)C)CC2)cc1 -3.92%
CC1=C(C(=O)Nc2ccccc2)C(c2ccc(C(=O)O)cc2)n2ncnc2N1 (centres undefined) -2.38%
Cc1ccc(NC(=O)CCCn2c(=O)c3cccn3c3ccccc32)c(C)c1 26.7%
CCOC(=O)c1cnc2c(ccc3ccccc32)c1Nc1cccc(C(F)(F)F)c1 -15.2%
Cc1ccc(C(=O)NCC(c2ccc3c(c2)OCO3)N2CCN(C)CC2)cc1C (centres undefined) -13.4%
CCc1noc(-c2ccc(NCc3ccccc3)c([N+](=O)[O-])c2)n1 -10.5%
N=c1c(C(=O)NCC2CCCO2)cc2c(=O)n3ccccc3nc2n1CCCO (centres undefined) -6.85%
COc1ccc(F)cc1S(=O)(=O)NCC(c1ccco1)S(=O)(=O)c1ccc(F)cc1 (centres undefined) -16.9%
Cc1cc(C(F)F)n2nc(C(=O)Nc3cccc(Cl)c3C)nc2n1 -5.52%
Cc1nn(CCCC(=O)NCCc2ccc(Cl)cc2)c(=O)c2c1sc1ccccc12 -1.24%
Cn1ncc2c(NCc3ccccc3Cl)nc(NCCO)nc21 -19.4%
COc1ccc2c(c1)c1c(c(=O)n(-c3ccccc3)c(=O)n1CC(=O)NCCC1=CCCCC1)n2C -17.9%
Cc1c(-c2ccccc2)oc2c(C(=O)OCCN3CCCCC3)cccc2c1=O -7.2%
CCOc1ccc(CNC(=O)C2CCN(S(=O)(=O)c3cn(C)cn3)CC2)cc1 7.08%
O=C(CN1C(=O)CCn2nc(-c3ccccc3)cc21)NCc1ccc(F)cc1 -14.6%
CCOC(=O)Cn1c(=O)n(C2CCCCC2)c2nc(-c3ccc(CC)cc3)nc(C(N)=O)c21 -4.86%
Cc1nc2ccccc2n2c(-c3ccccc3)c3c(=O)n(C)c(=O)n(C)c3c12 6.85%
Cc1ccccc1N(C)S(=O)(=O)c1nnc(NC(=O)c2ccccc2F)s1 -16.5%
COc1cccc(Cn2c(CNC(=O)CCc3ccccc3)nc3cccnc32)c1 -4.28%
Cc1ccc(NC(=O)C(=O)NCCc2sc(-c3ccc(Cl)cc3)nc2C)cc1C -6.44%
Cc1c(Cl)cccc1NC(=O)CCS(=O)(=O)c1ccc2c(c1)oc(=O)n2C -5.34%
COc1cccc(CNC(=O)CCn2nc(C)c3c(C)n(-c4ccccc4)nc3c2=O)c1 -8.74%
CN(c1ccccc1)S(=O)(=O)c1nnc(NC(=O)C2CCCCC2)s1 -12.9%
CCOC(=O)c1c(C)c(C(=O)NCc2ccc(OC)cc2)c(C)n1CC -5.07%
COc1ccc(NCc2cc3cc4c(cc3n(CC(=O)Nc3ccc(F)cc3)c2=O)OCCO4)cc1 -24.5%
O=C(CSc1nc2ccccc2nc1Cc1ccc(Cl)cc1)N1CCCc2ccccc21 9.51%
COC(=O)C(C)Sc1nc2c(cnn2-c2ccc(F)cc2)c(=O)[nH]1 (centres undefined) -7.21%
Cc1ccc2c(=O)cc(C(=O)Nc3ccc(S(=O)(=O)N(C)Cc4ccccc4)cc3)oc2c1C -10.9%
COc1cccc(C(=O)NCc2cn3ccccc3n2)c1 3.05%
CN(N=O)C(=O)N[C@@H]1[C@@H](O)[C@H](O)[C@@H](CO)O[C@@H]1O 10.7%
CCOc1ccc(OCC)c(NS(=O)(=O)c2c(C(=O)N3CCCCCC3)c(C)n(C)c2C)c1 -10.4%
